Assay results published in the supplement of paper PMC3334620.
Whole data set: some 33,000 sequences, median “E-score (-0.5 to 0.5)” near -0.054, cut for the highest 2% near 0.35. This is one part of the list.

Target: T1, Stb5 (UniProt P38699)
T1 sequence: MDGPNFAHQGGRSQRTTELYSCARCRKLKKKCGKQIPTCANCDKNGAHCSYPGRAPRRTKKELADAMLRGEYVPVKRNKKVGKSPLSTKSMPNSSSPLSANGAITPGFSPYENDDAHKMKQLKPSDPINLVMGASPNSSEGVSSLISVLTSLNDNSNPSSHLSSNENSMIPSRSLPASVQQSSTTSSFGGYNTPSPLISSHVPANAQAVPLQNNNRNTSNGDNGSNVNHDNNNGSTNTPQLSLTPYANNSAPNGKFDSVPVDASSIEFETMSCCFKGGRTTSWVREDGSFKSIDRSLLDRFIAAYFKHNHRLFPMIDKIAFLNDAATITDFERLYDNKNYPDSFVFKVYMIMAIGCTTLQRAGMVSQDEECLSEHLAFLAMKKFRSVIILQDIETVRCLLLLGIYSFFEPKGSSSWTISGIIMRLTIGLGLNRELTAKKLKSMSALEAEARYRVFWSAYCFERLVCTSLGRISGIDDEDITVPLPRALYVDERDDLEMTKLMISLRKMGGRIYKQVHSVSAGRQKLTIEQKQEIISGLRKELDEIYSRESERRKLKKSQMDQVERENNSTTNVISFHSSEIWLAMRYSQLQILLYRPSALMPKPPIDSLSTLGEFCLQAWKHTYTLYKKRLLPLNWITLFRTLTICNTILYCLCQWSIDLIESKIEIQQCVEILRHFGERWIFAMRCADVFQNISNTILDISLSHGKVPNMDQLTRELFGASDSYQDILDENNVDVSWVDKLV
Experiment: PBM E-score (8-mer binding enrichment) (E-score (-0.5 to 0.5)); higher = stronger / more preferred TF binding; most listed sequences are background and not binding sites
Conditions: protein concentration: 200 nM; construct: GST-full length
Protocol: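 Universal 'all 10-mer' protein binding microarrays (Agilent AMADID 015681) probed with GST-tagged S. cerevisiae TFs (full-length or DBD) made by in vitro transcription/translation (PURExpress), about 100-200 nM. Bound TF was detected with fluorescent anti-GST. Each ungapped 8-mer (which stands for itself and its reverse complement) is scored by the PBM enrichment score (E-score), a modified Wilcoxon-Mann-Whitney statistic from -0.5 to +0.5, computed with the Universal PBM Analysis Suite. Scale: above 0.35 generally sequence-specific binding.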

Sequence	PBM E-score
AGCCGAAG	-0.0341
CAGGACCA	-0.183
ATCCATGA	-0.25
CCGTGGCC	0.149
CTGAAAAG	-0.129
GCCGAGGC	0.143
ATTTGGGC	-0.144
CGTAGTTC	-0.06
GGTTAAAC	0.145
AGCGAGAT	-0.00166
CGAGCACG	0.115
GCAAACCA	-0.0507
CTTAAGGC	0.149
ATCGCTTC	-0.113
ACCCCGGT	0.356
CCTACAGA	-0.203
ATCCTAGG	-0.0987
AATGGGGT	0.0437
CTGGAGCC	0.0227
AGGCTCCC	-0.187
CAGATCTC	-0.126
ATTTAGGC	0.00693
ACCAAAAA	0.0809
AGCACACC	-0.0624
AACCAAAC	0.00959

Sequence	PBM E-score
GAGTGAAA	-0.212
GACGTCTC	-0.262
ATCGTGCC	0.12
TCCAACCA	-0.185
ATCTAGGG	-0.337
CGACGAAC	0.148
ACTTTCTG	0.00797
CGCTTATA	0.25
CGTCTTTC	0.00627
CTGTGTCA	-0.0243
AGATGCCC	-0.144
AAGCAAAG	-0.143
GCAGTAGA	-0.2
CGCGATCA	0.0825
CCTATTAC	-0.139
GCGAATGA	-0.0618
ACGTTTCT	-0.0761
AATCCAAC	-0.117
CTCTCCAC	-0.251
CACCTCTG	-0.263
ACGACCCT	-0.0137
AGGTGGTA	0.165
ACTACCGC	0.329
CAACCTGC	-0.00614
ACCGCGGC	0.412

Sequence	PBM E-score
CCCTTCGG	0.134
AAGGCTCG	-0.161
TGCCTCAA	-0.0793
AGACTCCC	-0.154
CACTCCAC	-0.333
AGACTCCT	-0.241
TCACGAAA	-0.0621
ATCTAGGC	-0.142
CGCCGGCC	0.391
ACGCTTCG	-0.185
GTCCGCCA	0.4
TTGCTAAA	-0.0669
AATGCTTG	-0.244
GCAGATGC	-0.149
GGCCACAC	0.0949
TCGTTGCA	-0.243
TAACAAAA	0.0358
CACAGGCG	0.131
AAGCCAAT	0.0459
ACATTGTA	-0.238
GCTCGCCA	0.00411
CATTTCAG	-0.195
GCCGCAGA	0.201
ACTGGTAA	0.0787
GCTCCCAA	-0.287

Sequence	PBM E-score
AGCAGTTG	-0.181
AAACGTGA	-0.285
AACACACG	-0.167
CATACACC	0.204
AGGCTGCC	-0.211
TATGTTCA	-0.108
AACGTTGA	-0.0296
TGCACCAA	-0.409
CAAGGGTA	-0.229
CGATTGTA	0.162
ATTGCCTC	-0.196
CGGGCGTC	0.198
CTCGATTA	-0.0987
GAAAACTA	-0.0062
ATATGGCC	0.222
AGCTAAAT	0.088
CGGAGAGC	0.00854
GGAAACAC	0.17
ACGTGGCT	-0.152
AGAGTTGC	0.0441
GCAAGGCA	-0.187
GAAATGCC	0.294
AGAAAGAC	-0.0525
CAGAACAG	-0.0857
GATTTCGA	-0.0771

Sequence	PBM E-score
AGCGGTGA	0.387
AGTAATAA	-0.124
ACTAAGAG	0.102
AGGCCGTA	0.223
CGCATGCA	0.15
TCCCTGCA	-0.0166
GACGTGCC	0.00712
GTTGAGAA	0.0595
ATTAACGG	0.217
ATGGCCTA	0.0294
AGGGGGTC	-0.342
GACCAATC	-0.122
ACTGCTCT	-0.0796
GTACTGCA	-0.181
GTGTCAGA	-0.0796
CCCGGGAG	0.109
AATAGTGC	0.217
CAGTACAC	-0.242
CATAAGTC	0.125
CTACATCC	-0.0483
CCCCAACC	-0.16
GGACGTCC	-0.00798
ATGCGACG	0.0491
AGTCATTC	-0.303
AGGAACAC	0.13

Sequence	PBM E-score
CTTACGAA	-0.17
GAGGGCAA	-0.148
TACTGGCA	-0.17
AACCTACA	-0.0764
CACCTAGA	-0.0146
TACTCGGA	0.114
AAGAGGAT	-0.147
ACAAGATC	-0.0806
CTATGCAG	-0.237
AAAATTGT	-0.203
GTATGTCA	-0.0197
GAGCAGCC	-0.259
AGCCGTAA	0.115
CCTGCTAA	-0.18
GCGCACCA	-0.00566
TCTAAACA	-0.0965
ATTCATCA	-0.0353
ACAGCCAG	-0.16
ACTCTTCC	-0.151
CGATGGAA	-0.0192
AACACTGG	-0.224
ACGCGGCC	0.105
CGGAAGGC	0.12
ATAAGAGC	0.128
GAAGACCA	-0.0322

Sequence	PBM E-score
GAGTAGAA	-0.161
AGGTAGTA	0.0131
ACGCAGCG	-0.0092
CAGCCCGA	0.124
GACGTTTA	-0.0411
CTGTCTAC	-0.162
GAAAAATC	-0.215
AGGATGTA	-0.0625
ACTGGCCG	-0.0443
CGTAGAAC	-0.0286
ATAGAAGC	-0.0497
ACAATCTC	0.0173
AACTCACC	-0.00352
TAAGCAAA	-0.135
CAGTACCG	0.303
GTTTGAGA	-0.24
GCAACGGA	0.308
CGCGATGC	0.0703
CATATCGG	0.132
AGGGTCCG	0.256
ACAGGTGA	-0.127
AGTTCCCA	-0.121
CTTCTCCA	-0.187
CAAATATA	-0.0723
CAGGACGC	-0.172

Sequence	PBM E-score
TGTGTCAA	-0.174
CAGGGGGC	-0.144
AGCGGTAG	0.204
GCCCGCGA	0.153
AAAATCGG	0.265
ACCTGTAT	-0.153
GTCCTGGA	-0.2
CCGCGTTC	0.193
GACGATGA	0.139
GCACCGAA	0.358
AATTCGAG	-0.148
AGAAAAAA	-0.113
ATCCTTGG	0.0702
CCATTTAA	-0.073
CACTCAGC	-0.0979
AACTCGTC	-0.204
ACTTCTCG	-0.0927
AAGACTGT	-0.313
AAGTTGAG	-0.133
GGATTCGA	-0.0242
CAGGTCGA	-0.262
ACGAAACC	0.133
GTAAGACA	-0.126
TATTTAAA	0.116
AGTTCCAA	-0.0608

Sequence	PBM E-score
AATTGCAC	-0.0778
CGTACTGC	-0.141
GGTATTAC	0.386
GGGACCGA	0.257
AAACAAGG	-0.0496
AATACCCA	-0.00126
ATCCATTC	-0.118
AAAGCGAA	-0.0323
CATTGGGG	-0.203
CAGGGTTC	-0.205
AGTCTAGG	-0.127
AGGGGCAA	-0.088
AAGTGATG	-0.238
AGTGTTGA	-0.0698
AGAGGAAG	-0.285
GGGCGCGA	-0.0309
CTCCAAGC	-0.182
CATACATG	-0.0783
ATGTTACG	-0.0742
ACTCGCAA	-0.195
CAGCCTCC	-0.119
CCCGCGGC	0.333
AAATCACG	-0.0679
CCCTCAGC	-0.183
AGCCCCGG	0.404

Sequence	PBM E-score
GGCCTCAA	0.0612
CGTGAGAC	0.0335
GATCAACA	-0.214
AAACCTGG	-0.212
CACGAGCA	-0.277
ATCCGCGC	0.248
TCCGCAGA	0.166
AATCTCGG	0.058
AGTACCCA	-0.101
TCCTTAAA	-0.274
CTGCTCCC	-0.16
ATAAAGTA	-0.0902
AAAAGCTA	-0.167
CACCCTCA	-0.305
ACGCCCGG	0.267
GGGTTTTA	0.322
AAGTCTTG	-0.201
CGGGGCTA	0.454
CTTTACTC	-0.0779
GATGCTGA	-0.156
GACGCTAC	-0.0535
ACGGAAAG	0.0988
ACTAACCT	0.0923
CTATACCC	0.229
CTTACCAA	-0.0606

Sequence	PBM E-score
TGTCACAA	-0.14
CCAACACG	-0.16
GCCTGTCC	-0.216
CGGACGAG	-0.0529
GTACCGCA	0.298
AATGAATA	0.0406
CGCACAAC	0.014
TCTTCACA	-0.0418
ATCTCCGA	0.394
CACCTAGC	-0.0338
GTGATATA	0.124
ACTGAGTC	0.0194
ATGAAGCC	0.187
AGGAATTG	-0.166
GGCCGCGA	0.0902
ATCCCGGG	0.299
CCGAGTAG	0.105
CAGCTGAA	-0.317
CAGATGAC	-0.077
ACAACAGT	-0.181
AACGGCAT	0.326
ACTCAAAC	0.0633
CTCAGCGC	0.0753
GACTTACC	0.208
AACAATTG	-0.274

Sequence	PBM E-score
GGGGGGTA	0.0523
GGCCCCCA	-0.198
ACGACCCC	-0.0617
CTACTAGC	0.0168
ATTTTGTC	-0.00468
GGCGAGAC	-0.151
CAGTCGAA	-0.0905
AAGTTATT	-0.0193
ACCTTCAT	0.0802
GGCCATCA	-0.154
ACGCTAAA	-0.162
GATCTGAA	-0.185
CCTAGGAA	-0.181
ATAAAGTG	-0.164
CTGAAGCC	-0.00186
CCTTTACG	-0.0771
AATGGAAT	-0.149
GATGTCTA	-0.144
CAGTACGC	-0.143
CTGACTCA	-0.14
ATAGTTTC	-0.143
ACTAGATA	-0.0499
CAATGTGG	-0.217
CTGCCCGC	0.06
GCACGGGA	0.147

Sequence	PBM E-score
GACCTTTA	0.0314
GAAGCGTA	-0.132
CGGTTATA	0.37
AACTGGAT	-0.146
AATCTATC	-0.0149
ACTGAGGC	-0.179
CAGTGCCC	0.00392
AATACTCC	0.173
CTTATCCC	0.0404
CGTCGGGC	0.361
GAACTAAC	0.0376
GCCTCTAA	-0.0692
CGATAACC	0.16
CCTTTCCA	0.0223
ATCCATCA	-0.29
GGTCAGAC	-0.106
AAAACATT	-0.255
CCATTAAG	0.00816
GCAATGAC	-0.137
TCCCACAA	0.0012
CGGTAGTC	0.18
ACCAGGCG	0.0866
GAAGTCTA	-0.207
ATGCAAGA	-0.163
AGGATAAT	-0.0958

Sequence	PBM E-score
AGCATCGA	-0.133
AACATCTT	0.0125
TGTGCGAA	-0.201
CAAGTAGG	-0.242
GACCTCTA	-0.195
AAACACGC	0.0764
ACGTCGCG	-0.0918
GTCATAAA	0.0467
GACGATCA	-0.17
AACATCGC	0.0424
GCTTTGGA	-0.0727
AATTGGAT	-0.0326
CAACTCCA	-0.162
ATTAAAAT	-0.0244
TAATAAGA	0.0281
CTTATTCA	-0.0668
CGGGACTC	0.184
ATCCCTGG	-0.253
AATAACTA	-0.217
